Assay [1] addresses T1, TRAIL-R4-Fc fusion antigen (Homo sapiens, UniProt Q9UBN6).
T1 construct: a panel of soluble forms of TRAIL receptors as antigen
Nature of the assay: ELISA binding specificity to TRAIL receptors. Particulars: purified antibody at various concentrations; plate coated at 1 μg/ml. As to the method:
(§1) In order to obtain a monoclonal antibody that binds TRAIL-R1 and TRAIL-R2 but not other TRAIL-receptors such as TRAIL-R3 and TRAIL-R4, ELISA plate is coated with the following recombinant proteins: 1. TRAIL-R1 and TRAIL-R2 hetero-dimer antigen, 2. TRAIL-R1-Fc fusion antigen, 3) TRAIL-R2-Fc fusion antigen, 4. TRAIL-R3-Fc fusion antigen 5. TRAIL-R4-Fc fusion antigen, and BSA as negative control. After incubation with various concentrations of purified antibody, HRP-conjugated goat anti-mouse IgG is added. After TMB substrate reaction, the optical density is recorded in a ELISA plate reader. The optical density values are used to estimate the binding of an antibody to the corresponding antigens.
(§2) ELISA plate was coated with the following recombinant proteins at 1 μg/ml in PBS at 4° C. overnight: 1. TRAIL-R1 and TRAIL-R2 hetero-dimer antigen, 2. TRAIL-R1-Fc fusion antigen, 3. TRAIL-R2-Fc fusion antigen, 4. TRAIL-R3-Fc fusion antigen, 5. TRAIL-R4-Fc fusion antigen, or BSA as negative control. After washing three times with PBS, the plate was blocked with 3% BSA PBS at room temperature for one hour. […] After washing three times with PBS, HRP-conjugated anti-mouse IgG antibody was then added for 30 minutes. After washing three times with PBS, TMB substrate buffer was added for 10 minutes and then the reaction was stopped by adding 2N H2SO4. The values of optical density were recorded in a ELISA plate reader with a dual wavelength at 450 nm/650 nm.
(§3) ELISA plate was coated with the following recombinant proteins at 1 μg/ml in PBS at 4° C. overnight: 1. TRAIL-R1 and TRAIL-R2 hetero-dinner antigen, 2. TRAIL-R1-Fc fusion antigen, 3. TRAIL-R2-Fc fusion antigen, 4. TRAIL-R3-Fc fusion antigen, 5. TRAIL-R4-Fc fusion antigen, or BSA as negative control. After washing three times with PBS, the plate was blocked with 3% BSA PBS at room temperature for one hour. The plate was incubated with various concentrations of purified the chimeric or the parental murine antibodies at 37° C. for one hour. The unbound antibodies were removed by washing three time with PBS, and then HRP-conjugated goat anti-mouse IgG1 for murine antibodies or HRP-conjugated goat anti-human kappa for human chimeric antibodies was added at 37° C. for 30 minutes. After washing three times with PBS, TMB substrate buffer was added for 10 minutes and then the reaction was stopped by adding 2N H2SO4. The values of optical density were recorded in a ELISA plate reader with a dual wavelength at 450 nm/650 nm.
(In an ELISA, binding on a coated surface is turned into a signal by an enzyme label.)

The target in assay [2] is T2, TRAIL-R3-Fc fusion antigen (Homo sapiens, UniProt O14798).
T2 construct: a panel of soluble forms of TRAIL receptors as antigen
T2 sequence (O14798 26-236 limits assumed, other chains not shown): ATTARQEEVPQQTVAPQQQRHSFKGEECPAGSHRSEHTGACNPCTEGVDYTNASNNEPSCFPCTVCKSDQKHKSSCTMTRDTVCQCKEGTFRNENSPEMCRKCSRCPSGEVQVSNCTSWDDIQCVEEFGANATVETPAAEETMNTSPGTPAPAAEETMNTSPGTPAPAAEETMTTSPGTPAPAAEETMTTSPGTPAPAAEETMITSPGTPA
Put plainly: ELISA binding specificity to TRAIL receptors. Particulars: purified antibody at various concentrations; plate coated at 1 μg/ml. As to the method:
as §1, §2, §3

The next assay concerns the target BSA (Bos taurus, UniProt P02769). Nature of the assay: ELISA binding specificity, negative control. Particulars: purified antibody at various concentrations. As to the method:
as §1
ELISA plate was coated with the following recombinant proteins at 1 μg/ml in PBS at 4° C. overnight: 1. TRAIL-R1 and TRAIL-R2 hetero-dimer antigen, 2. TRAIL-R1-Fc fusion antigen, 3. TRAIL-R2-Fc fusion antigen, 4. TRAIL-R3-Fc fusion antigen, 5. TRAIL-R4-Fc fusion antigen, or BSA as negative control. […] The values of optical density were recorded in a ELISA plate reader with a dual wavelength at 450 nm/650 nm.
ELISA plate was coated with the following recombinant proteins at 1 μg/ml in PBS at 4° C. overnight: 1. […] The values of optical density were recorded in a ELISA plate reader with a dual wavelength at 450 nm/650 nm.

Assay [3] relates to MDA231 (Human Breast Cancer). Nature of the assay: ATPLite cell viability / IC50. As to conditions: overnight culture, MEAN±SD of triplicated cultures. It is filed as cell-based. The procedure: (§4) After culture at 37° C. overnight, cell viability was determined using the ATPLite kit according to the manufacturer's instructions (Packard Instruments, Meriden, Conn.): add 50 μl of cell lysis buffer and then 50 μl of substrate buffer. The reaction was counted in a luminescent reader. Cell viability was calculated as (cpm of treated cells/emp of control cells)×100%.
(§5) Cell viability was determined by ATPLite assay at the end of each time point. […] Viable cells of both cell lines were reduced below 50% at 4 h after treatment, and 5% at 24 h after treatment (FIG. 4).
(§6) ATPLite assay was used to determine cell viability and IC50 of each antibody. 1,000 target cells per well were cultured in 96-well plates in the presence of seven concentrations of 10-fold diluted chimeric antibody or their correspondent parental murine antibody with the highest concentration at 1000 ng/ml and the lowest concentration at 0.01 ng/11 After culture at 37° C. overnight cell viability was determined using the ATPLite kit according to the manufacturer's instructions (Packard Instruments, Meriden, Conn.): add 50 μl of cell lysis buffer and then 50 μl of substrate buffer. The reaction was counted in a luminescent reader. Cell viability was calculated as (cpm of treated cells/cmp of control cells)×100%. A dose-dependent killing curve is generated. The IC50 was calculated by linear regression. […]

The subject of assay [4] is Colo205 (Human Colorectal Cancer). Put plainly: ATPLite cell viability / IC50. It is filed as cell-based. As to conditions: overnight culture, MEAN±SD of triplicated cultures. As to the method: as §4, §5, §6
On the technique in general: Cellular ATP, detected with luciferase, serves as a proxy for viable cell number.

In assay [5] the test system is Du145 (Human Prostate Cancer). Put plainly: ATPLite cell viability / IC50. It is filed as cell-based. As to conditions: overnight culture, MEAN±SD of triplicated cultures. As to the method:
(§7) ATPLite assay was used to determine cell viability and IC50 of each antibody. 1,000 target cells per well were cultured in 96-well plates in the presence of seven concentrations of 10-fold diluted chimeric antibody or their correspondent parental murine antibody with the highest concentration at 1000 ng/ml and the lowest concentration at 0.01 ng/11 After culture at 37° C. overnight cell viability was determined using the ATPLite kit according to the manufacturer's instructions (Packard Instruments, Meriden, Conn.): add 50 μl of cell lysis buffer and then 50 μl of substrate buffer. The reaction was counted in a luminescent reader. Cell viability was calculated as (cpm of treated cells/cmp of control cells)×100%. A dose-dependent killing curve is generated. The IC50 was calculated by linear regression. The results are presented as MEAN±SD of triplicated cultures.

Assay [6] has as its system H-2122 (Human Lung Cancer). Nature of the assay: ATPLite cell viability / IC50. It is filed as cell-based. Particulars: overnight culture, MEAN±SD of triplicated cultures. The procedure:
as §7

Assay [7] relates to MIAcap (Human Pancreatic Cancer). Nature of the assay: ATPLite cell viability / IC50. Format: cell-based. Particulars: overnight culture, MEAN±SD of triplicated cultures. The procedure:
as §7

Assay [8] deals with Carov 3 (Human Ovarian Cancer). Put plainly: ATPLite cell viability / IC50. Particulars: overnight culture, MEAN±SD of triplicated cultures. Format: cell-based. The procedure:
as §7

Sequence of BSA (P02769 25-607): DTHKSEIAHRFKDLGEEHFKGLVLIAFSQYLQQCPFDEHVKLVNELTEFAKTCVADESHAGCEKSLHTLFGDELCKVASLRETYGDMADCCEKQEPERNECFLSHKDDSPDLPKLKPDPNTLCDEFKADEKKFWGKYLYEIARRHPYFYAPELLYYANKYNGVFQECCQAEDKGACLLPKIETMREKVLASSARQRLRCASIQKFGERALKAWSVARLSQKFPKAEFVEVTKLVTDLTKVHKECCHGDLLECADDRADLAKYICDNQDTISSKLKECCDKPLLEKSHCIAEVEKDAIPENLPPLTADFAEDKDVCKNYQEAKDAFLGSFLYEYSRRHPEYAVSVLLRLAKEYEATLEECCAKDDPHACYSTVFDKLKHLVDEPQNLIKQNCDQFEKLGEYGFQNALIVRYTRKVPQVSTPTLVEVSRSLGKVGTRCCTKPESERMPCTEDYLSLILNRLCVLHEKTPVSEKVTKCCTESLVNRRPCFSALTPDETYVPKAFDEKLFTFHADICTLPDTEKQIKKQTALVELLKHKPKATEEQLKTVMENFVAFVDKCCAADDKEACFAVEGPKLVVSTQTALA
T1 sequence (Q9UBN6 56-211 limits assumed, other chains not shown): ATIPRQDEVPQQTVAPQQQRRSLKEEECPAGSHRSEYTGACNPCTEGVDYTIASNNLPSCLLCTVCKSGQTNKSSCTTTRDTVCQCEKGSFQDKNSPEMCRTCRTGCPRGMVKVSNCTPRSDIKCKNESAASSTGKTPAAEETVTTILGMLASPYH

B1: chimeric CTB006: Monospecific humanized chimeric monoclonal antibody directed to TRAIL-R2 receptor (protein)
light: DIVMTQSHKFMSTSVGDRVSITCKASQDVSTAVAWYQQKPGQSPRLLIYWASTRHTGVPDRFTGSGSGTDYTLTISSVQAEDQALYYCQQHYRTPWTFGGGTKLEIKRAVAAPSVDIFPPSDEQLKSGTASVVCLLNNFYPREAKVQWKVDNALQSGNSQESVTEQDSKDSTYSLSSTLTLSKADYEKHKVYACEVTHQGLSSPVTKSFNRGEC
heavy: EVQLQQSGPELVKPGASVRMSCKASGYTFTSYFIHWVKQRPGQGLEWIGWIYPGNVNTKYSEKFKGKATLTADKSSSTAYMQFSSLTSEDSAVYFCARGEAGYFDYWGQGTTLTVSSASTKGPSVFPLAPCSRSTSGGTAALGCLVKDYFPEPVTVSWNSGALTSGVHTFPAVLQSSGLYSLSSVVTVPSSSLGTQTYICNVNHKPSNTKVDKRV[human IgG1 Fc with A327G V412M (EU numbers) omitted here]
In the case of B1, the “binding in ELISA” value (in assay [1]; in assay [2]; with BSA) was “does not react” in each case.

B2: chimeric CTB003: Humanized chimeric monoclonal antibody directed to a common epitope shared by TRAIL-R1 and TRAIL-R2 polypeptides (protein)
light: DIQMTQSSSSFSVSLGDRVTITCKASEDIYNRLAWYQQKPGNAPRLLISGATSLETGVPSRFSGSGSGKDYTLSITSLQTEDVATYYCQQYWSTPLTFGAGTKLELKRAVAAPSVDIFPPSDEQLKSGTASVVCLLNNFYPREAKVQWKVDNALQSGNSQESVTEQDSKDSTYSLSSTLTLSKADYEKHKVYACEVTHQGLSSPVTKSFNRGEC
heavy: EVHLVESGGGLVRPGGSLKLSCAASGFAFSSYDMSWVRQTPEKRLEWVAYISDGGGITYYPDTMKGRFTISRDNAKNTLSLQMSSLKSEDTAMYYCARHITMVVGPFAYWGQGTLVTVSAASTKGPSVFPLAPCSRSTSGGTAALGCLVKDYFPEPVTVSWNSGALTSGVHTFPAVLQSSGLYSLSSVVTVPSSSLGTQTYICNVNHKPSNTKVDKRV[human IgG1 Fc with A327G V412M (EU numbers) omitted here]
B2: the IC50 (in general, the point on the concentration scale where inhibition reaches its midpoint) is 0.0042 ± 0.0012 µg/mL in [3]; 0.0066 ± 0.0013 µg/mL in assay [4]; 0.0398 ± 0.0042 µg/mL in [5]; 0.0291 ± 0.0025 µg/mL in assay [6]; 0.0125 ± 0.0021 µg/mL in assay [7]; 0.0225 ± 0.0015 µg/mL in assay [8]. Besides, the “binding in ELISA” value (in assay [1]; in [2]; in the assay with BSA) was “does not react” in each case.

Values taken from patent US7897730B2, “TRAIL receptor-binding agents and uses of the same” (Beijing Cotimes Biotech Ltd., priority 2006, dated 2011).
